# Patent US20210221874A1 (TRUSTEES OF TUFTS COLLEGE, published 2021)
# B1: VNA2-PA (JKU-1) (bispecific antibody)
# chain: [about 100 residues skipped]GSGSGHMHHHHHHSSGLVPRGSGMKETAAAKFERQHMDSPDLGTDDDDKAMAISDPNSGAPVPYPDPLEPRAAAQVQLAESGGGLVQPGGSLGLSCVVASERSINNYGMGWYRQAPGKQRELVAQISSGGTTNYADSVEGRFTISRDNVKKMVHLQVNSLKPEDTAVYYCNSLLRTFSWGQGTQVTVSSEPKTPKPQAIAGGGGSGGGGSGGGGSLQGQVQLAESGGGGLVQAGGSLRLSCAASGRTFSGYAMGWFRQAPGKEREFVADISWSGHNTYYGDSVKGRFTISRDTAKNTVYLQMNSLKPEDTAVYYCAAEGARTHLSDSYYFPGLWAEPPVGYWGQGTQVTVSSEPKTPKPQPARQGAPVPYPDPLEPRGGGSDICLPRWGCLWED
# notes: also called heterodimer of JIK-B8 and JKH-C7
# Tests used:
# [1] = molecular target: T1, anthrax protective antigen, wild type PA83 (Bacillus anthracis); assay: cell-based or functional assay
# [2] = molecular target: T1, anthrax protective antigen, wild type …; assay: cell-based or functional assay; remark: listed apart in the source
# [3] = molecular target: T1, anthrax protective antigen, wild type …; assay: method not stated
# [4] = molecular target: T1, anthrax protective antigen, wild type …; assay: dilution ELISA on PA-coated plates
binder,measurement,setting,value
B1,IC50 (read off the curve),[1],~0.5 nM
same,"IC50 (anthrax lethal toxin neutralization, RAW264.7 macrophages)",[2],0.5 nM
same,Kd,[3],0.07 nM
same,EC50,[4],1 nM
